# Laboratory results: PubChem BioAssay AID651820 (National Center for Advancing Translational Sciences (NCATS), 2012)
# In all, about 340,000 compounds went through this assay and about 12,000 (3.5%) were called active. Inconclusive means that the source gave no clear call. Such entries were picked first, then a sample of the others. The call rests on the fitted dose curve; in most records, active means well fitted inhibition curve with a large enough effect; inconclusive means small, poorly fitted or top-dose-only effect, or another doubt; inactive means no such curve, though single readings can be large or run the other way. No potency is given beside an inconclusive call; the fits are too rough.
# Assay: qHTS Assay for Inhibitors of Hepatitis C Virus (HCV)
# Conditions: Huh7.5.1 HCVcc-Cre (HCVcc is cell-culture hepatitis C virus) infection, luciferase reporter, 44 h; series mostly up to 41.8 µM
# How it was run: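 Whole-lifecycle infectious HCVcc-Cre system; cells 1,000/well, compound then virus (~0.5 moi) added 4 h after plating, 44 h culture. Luciferase read 15 sec following 15 min substrate incubation, room temp.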
# Potency means the concentration at half of the fitted maximal effect; tags describe the fitted curve by direction and shape.
row,Compound,Potency
1,COc1ccc(-c2noc(CCC(=O)Nc3ccc(C)c(C)c3)n2)cc1,"inconclusive [inhibitor, partial curve]"
2,COc1ccccc1CCNC(=O)Cn1ccc2cc(S(=O)(=O)N3CCC(C)CC3)ccc21,"inconclusive [inhibitor, single point]"
3,COC(=O)C1=C(c2cc3ccccc3o2)C[C@@H]2CC[C@H]1N2C(=O)NCc1ccco1,"inconclusive [inhibitor, single point]"
4,COc1ccc2[nH]c(=O)c(CN(Cc3ccccc3)C(=S)NCC3CCCO3)cc2c1 (stereo not given),"inconclusive [inhibitor, single point]"
5,CC(=O)Cc1nsc(NC(=O)c2ccc(-c3cc(Cl)ccc3Cl)o2)n1,"inconclusive [inhibitor, full curve]"
6,CC(=O)c1cccc(NC(=O)c2noc3c2CCc2ccccc2-3)c1,inactive
7,COc1cc2nc(N(CCN(C)C)C(=O)c3ccc4ccccc4c3)sc2cc1OC,"inconclusive [inhibitor, partial curve]"
8,COc1cccc(C2/C(=C(/O)c3ccccc3)C(=O)C(=O)N2CCCC(=O)O)c1 (stereo not given),"inconclusive [inhibitor, single point]"
9,Cc1ccc(C(=O)N/C(=C/c2ccc(-c3cccc([N+](=O)[O-])c3)o2)C(=O)NC(C)C)cc1,"inconclusive [inhibitor, partial curve]"
10,O=C(NNC(=O)C1CC1c1ccccc1)Nc1ccccc1 (stereo not given),inactive
11,O=C(Nc1cccc(F)c1)C1CCCN(S(=O)(=O)c2cccc3cccnc23)C1 (stereo not given),"inconclusive [inhibitor, single point]"
12,Cc1cccc(C2CN(C)CCc3c2cc(O)c(O)c3Cl)c1 (stereo not given),"inconclusive [inhibitor, partial curve]"
13,C[C@H](CO)N1C[C@H](C)[C@@H](CN(C)C(=O)Nc2ccccc2)Oc2c(NC(=O)C3CCCCC3)cccc2C1=O,inactive
14,COc1ccc(N(CC(=O)Nc2cc(C)cc(C)c2)S(=O)(=O)c2ccccc2[N+](=O)[O-])c(OC)c1,inactive
15,COc1ccc(N(C(=O)c2snc(C(N)=O)c2N)C(C(=O)NC2CCCC2)c2ccco2)cc1OC (stereo not given),"inconclusive [inhibitor, partial curve]"
16,COc1cccc(CN(C)CC2CCCN(CCc3ccc(Cl)cc3)C2)c1OC (stereo not given),"inconclusive [inhibitor, full curve]"
17,CCOc1ccc(NC(=O)CCC(=O)N/N=C/c2ccc([N+](=O)[O-])s2)cc1,"inconclusive [inhibitor, single point]"
18,COc1ccc(Cl)cc1C=CC=Nc1ccccc1O,"inconclusive [inhibitor, single point]"
19,COc1ccc(CCNC(=O)COc2coc(CN3c4ccccc4CC3C)cc2=O)cc1OC (stereo not given),active: 11.2 µM
20,CCOC(=O)C1=C(C)OC(N)=C(C#N)C1c1cc2c(cc1Br)OCO2 (stereo not given),inactive
21,C=CCC(CC(O)COCCC)C(=O)NNC(=S)Nc1ccccc1 (stereo not given),inactive
22,CCOC(=O)CSc1nnc(NC(=O)c2cc([N+](=O)[O-])cc([N+](=O)[O-])c2)s1,inactive
23,O=c1[nH]c(=O)n(-c2ccccc2)c(O)c1/C=C1/C(c2ccccc2)=Nc2ccccc21,"inconclusive [inhibitor, full curve]"
24,CCOC(=O)C1(c2ccccc2)CCN(CC(=O)Nc2ccc(C)cc2)CC1,"inconclusive [inhibitor, single point]"

row,Compound,Potency
1,Cc1cc(OCC(=O)NC2CCCCC2)ccc1Cl,inactive
2,CC(=O)Oc1cccc(C(=O)Nc2ccc(NC(=O)c3cccs3)cc2)c1,"inconclusive [inhibitor, single point]"
3,C=CCC[C@@H](Cc1ccc(F)cc1)C(=O)OC[C@@H](Cc1c[nH]c2ccccc12)NC(=O)[C@@H](CC=C)CC(=O)N[C@H](CO)Cc1ccccc1,"inconclusive [inhibitor, single point]"
4,O=C(Cn1c(C(=O)NCC2CCCO2)cc2sccc21)c1ccccc1 (stereo not given),inactive
5,C=CCn1c(SCC(=O)N2CCc3ccccc3C2)nc2sc(CC)cc2c1=O,"inconclusive [inhibitor, single point]"
6,O=C(c1nnsc1S(=O)c1ccc(Cl)cc1)N1CCOCC1 (stereo not given),"inconclusive [inhibitor, single point]"
7,COc1cc(CNn2nnnc2N)ccc1OCc1c(Cl)cccc1Cl,"inconclusive [inhibitor, single point]"
8,CC(C)CNS(=O)(=O)c1ccc(CCC(=O)Nc2cc(Cl)ccc2Oc2ccccc2)cc1,"inconclusive [inhibitor, partial curve, poor fit]"
9,Cc1ccc(Nc2nc(-c3ccncc3)cs2)cc1,"inconclusive [inhibitor, single point]"
10,CCOc1cc2c(cc1OCC)-n1cccc1C(c1cccc(OCC)c1O)NC2 (stereo not given),"inconclusive [inhibitor, single point]"
11,COc1ccc(NC(=O)c2ccc3c(=O)n4c(nc3c2)CCCCC4)cc1,"inconclusive [inhibitor, partial curve]"
12,CC1=CC2/C=C(\C)CCC(O)C(O)/C=C/C(=O)C23C(=O)NC(CC(C)C)C3C1C (stereo not given),"inconclusive [inhibitor, partial curve]"
13,CSc1ccccc1NC(=O)C(C)N1C(=O)c2ccccc2S1(=O)=O (stereo not given),"inconclusive [inhibitor, single point]"
14,COc1ccccc1NC(=O)Nc1sccc1-c1nc2ccccc2s1,"inconclusive [inhibitor, single point]"
15,C[C@@H](C(=O)OCC(=O)c1ccccc1)N1C(=O)C2CCCCC2C1=O (stereo not given in full),inactive
16,COc1cccc(-c2nc3c(c(SCC(=O)N4CCOCC4)n2)Cc2c(CO)cnc(C)c2O3)c1,active: 11.2 µM
17,COc1ccc2c(c1)c(=O)oc1cc3occ(C(C)(C)C)c3cc12,"inconclusive [inhibitor, full curve, poor fit]"
18,Cc1cc(C)c(C(=O)CSc2nnc(N)s2)cc1C,inactive
19,CCC(CO)Oc1cc(NC(=O)c2cccc([N+](=O)[O-])c2)c2ncn(C(C)C)c2c1 (stereo not given),active: 2.82 µM
20,Cc1ccc(-c2nn(-c3cc(N4CCNCC4)ccc3[N+](=O)[O-])c(=O)c3ccccc23)cc1,"inconclusive [inhibitor, single point]"
21,Cc1cc(C)cc(NC(=O)COC(=O)CCn2c(C)csc2=O)c1,inactive
22,CCOC(=O)c1c(NC(=O)CSc2nnc(-c3ccc(Cl)cc3)o2)sc2c1CCC2,inactive
23,CCCCN(CCO)c1ncnc2sc(-c3ccccc3)cc12,active: 17.8 µM
24,O=C1C2CC3N1CCC31c3ccccc3-n3c1c2ccc3=O (stereo not given),inactive

row,Compound,Potency
1,O=C(Nc1cc(Cl)ccc1N1CCOCC1)c1ccc(=O)[nH]c1,inactive
2,O=C(Nc1cccc(Cl)c1)C1CCCN(S(=O)(=O)c2ccc(F)cc2)C1 (stereo not given),"inconclusive [inhibitor, single point]"
3,O=C(N=C1SC2CS(=O)(=O)CC2N1c1ccc(F)c(Cl)c1)C1CC1 (stereo not given),"inconclusive [inhibitor, single point]"
4,NC(=S)N/N=C/c1coc2c(ccc3ccccc32)c1=O,inactive
5,O=C(Cn1cncn1)N/N=C/c1cc([N+](=O)[O-])ccc1O,inactive
6,O=C(C#Cc1ccccc1)Nc1cccc(F)c1,"inconclusive [inhibitor, single point]"
7,FC(F)(F)c1cnc(C(c2ccccn2)c2ncn[nH]2)c(Cl)c1 (stereo not given),inactive
8,CCCn1c(-c2ccccc2)cc(SC)c(C#N)c1=O,"inconclusive [inhibitor, single point]"
9,O=[N+]([O-])c1cc(-c2nc(-c3ccncc3)no2)cc([N+](=O)[O-])c1,"inconclusive [inhibitor, single point]"
10,O=C(O)c1cccc(CSc2nnc(Cc3ccccc3)o2)c1,"inconclusive [inhibitor, single point]"
11,CC(Sc1nc(-c2ccccc2)cc(C(F)(F)F)n1)C(=O)N1CCC(C(N)=O)CC1 (stereo not given),"inconclusive [inhibitor, partial curve]"
12,COc1ccc2[nH]c(C(=O)NCCCn3ccnc3)cc2c1,inactive
13,Cc1cc(C)c2c(NC(=O)CCl)nn(C)c2n1,"inconclusive [inhibitor, single point]"
14,CC(C(=O)Nc1cccc([N+](=O)[O-])c1)N1CCN(C/C=C/c2ccccc2)CC1 (stereo not given),"inconclusive [inhibitor, partial curve, poor fit]"
15,Cc1ccc(C2=N/C(=C/N3CCOCC3)C(=O)O2)cc1,inactive
16,COc1cc(NC(=O)c2cc3nc(C4CC4)cc(C(F)(F)F)n3n2)c(OC)cc1Cl,inactive
17,CCn1cc(/C=N\NC(=O)c2c[nH]c3ccccc23)c(C)n1,inactive
18,Fc1ccc(Nc2ncnc3sc4c(c23)CCC4)cc1,active: 3.16 µM
19,Cc1ccc(C)c(C(=O)CSc2nnnn2C(C)C)c1,"inconclusive [inhibitor, single point]"
20,NC(=O)c1cc(S(=O)(=O)N2CCCC2)ccc1OCCOc1ccccc1F,inactive
21,O=C(Nc1nc(-c2cccs2)c(-c2cccs2)s1)C1CCCC1,"inconclusive [inhibitor, partial curve]"
22,Cc1ccccc1-c1nc(CN2CCC(C(=O)NCCCN3CC(C)CC(C)C3)CC2)c(C)o1 (stereo not given),active: 1.26 µM
